{"source": "the supplement of paper PMC6531468", "assay_in_all_cases": "6-mer SELEX enrichment z-score vs GST control; IMP3 is the RNA-binding protein IGF2BP3; higher = more enriched by binding", "key": {"[1]": {"biological_target": "IMP3 full-length (UniProt O00425)", "sequence (O00425 whole entry)": "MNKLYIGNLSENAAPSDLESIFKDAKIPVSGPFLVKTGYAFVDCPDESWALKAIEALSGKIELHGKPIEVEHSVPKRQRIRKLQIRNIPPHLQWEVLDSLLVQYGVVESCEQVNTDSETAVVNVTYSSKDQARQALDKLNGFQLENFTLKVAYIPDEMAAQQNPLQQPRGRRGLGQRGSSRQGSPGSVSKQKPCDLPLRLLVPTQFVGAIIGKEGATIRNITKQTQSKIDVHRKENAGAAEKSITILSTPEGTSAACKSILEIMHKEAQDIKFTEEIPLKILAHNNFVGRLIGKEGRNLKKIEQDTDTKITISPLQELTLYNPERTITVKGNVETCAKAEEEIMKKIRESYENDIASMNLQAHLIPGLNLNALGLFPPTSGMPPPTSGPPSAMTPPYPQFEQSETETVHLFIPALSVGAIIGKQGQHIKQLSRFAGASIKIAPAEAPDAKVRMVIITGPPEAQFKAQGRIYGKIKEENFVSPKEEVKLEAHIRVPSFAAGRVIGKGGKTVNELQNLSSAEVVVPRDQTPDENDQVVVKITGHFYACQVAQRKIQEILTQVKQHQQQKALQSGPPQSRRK", "details": "construct: FL IMP3 (1-579); SELEX round: R4", "procedure": "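SELEX-seq with GST-tagged full-length IMP3 and an N40 RNA pool, round 4. Each 6-mer is scored as an enrichment z-score of sequence tags containing it, normalised to the matching GST SELEX round. RNA written as DNA (T = U).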"}, "[2]": {"tested_on": "IMP3 KH1-2", "sequence (chain, as listed by the source)": "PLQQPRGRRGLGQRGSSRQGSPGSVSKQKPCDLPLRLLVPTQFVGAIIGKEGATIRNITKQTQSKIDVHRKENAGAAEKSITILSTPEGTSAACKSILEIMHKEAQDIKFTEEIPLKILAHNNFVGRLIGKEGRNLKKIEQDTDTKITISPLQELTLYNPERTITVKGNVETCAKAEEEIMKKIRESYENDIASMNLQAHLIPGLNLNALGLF", "details": "construct: KH1-2 (164-376); SELEX round: R4", "procedure": "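SELEX-seq with GST-tagged IMP3 KH1-2 (Pro164-Phe376) and an N40 RNA pool, round 4 (stringent 300/600 mM KCl washes). 6-mer z-score of sequence-tag enrichment normalised to the corresponding GST SELEX round; RNA k-mers written as DNA (T for U).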"}, "[3]": {"tested_on": "IMP3 KH3-4", "sequence (chain, as listed by the source)": "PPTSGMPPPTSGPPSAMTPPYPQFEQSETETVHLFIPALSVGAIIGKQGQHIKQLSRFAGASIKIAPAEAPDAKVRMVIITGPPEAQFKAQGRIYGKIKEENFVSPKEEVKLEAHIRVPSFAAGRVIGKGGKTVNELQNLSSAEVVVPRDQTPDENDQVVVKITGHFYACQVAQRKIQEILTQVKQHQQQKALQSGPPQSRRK", "details": "construct: KH3-4 (377-579); SELEX round: R4", "procedure": "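SELEX-seq with GST-tagged IMP3 KH3-4 (Pro377-Lys579) and an N40 RNA pool, round 4. 6-mer z-score of sequence-tag enrichment normalised to the corresponding GST SELEX round; RNA k-mers written as DNA (T for U).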"}, "[4]": {"tested_on": "IMP3 RRM1-2", "sequence (chain, as listed by the source)": "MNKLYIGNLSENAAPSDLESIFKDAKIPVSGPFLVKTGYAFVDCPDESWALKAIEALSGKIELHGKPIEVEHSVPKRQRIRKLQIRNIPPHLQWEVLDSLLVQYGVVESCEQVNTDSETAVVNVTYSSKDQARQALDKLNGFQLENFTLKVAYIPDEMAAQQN", "details": "construct: RRM1-2 (1-163); SELEX round: R2", "procedure": "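SELEX-seq with GST-tagged IMP3 RRM1-2 (Met1-Asn163) and an N40 RNA pool, round 2. 6-mer enrichment z-score normalised to GST SELEX. RNA written as DNA (T = U).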"}}, "note": "The other results are listed elsewhere or left out. Values come from read counts of a selection and are noisy. Scores sum up all selected molecules that hold the word; the word was not tested alone.", "data": [{"sequence": "AGGGGT", "values": [{"measurement": "6-mer SELEX enrichment z-score", "setting": "[1]", "value": 0.357}, {"measurement": "6-mer SELEX enrichment z-score", "setting": "[2]", "value": 0.722}, {"measurement": "6-mer SELEX enrichment z-score", "setting": "[3]", "value": 0.784}]}, {"sequence": "AGCCAA", "values": [{"measurement": "6-mer SELEX enrichment z-score", "setting": "[1]", "value": -0.971}, {"measurement": "6-mer SELEX enrichment z-score", "setting": "[2]", "value": -1.3}, {"measurement": "6-mer SELEX enrichment z-score", "setting": "[3]", "value": -1.51}]}, {"sequence": "ATGATA", "values": [{"measurement": "6-mer SELEX enrichment z-score", "setting": "[1]", "value": 0.172}, {"measurement": "6-mer SELEX enrichment z-score", "setting": "[2]", "value": 1.44}, {"measurement": "6-mer SELEX enrichment z-score", "setting": "[3]", "value": 2.66}]}, {"sequence": "ATACAT", "values": [{"measurement": "6-mer SELEX enrichment z-score", "setting": "[4]", "value": 1.69}, {"measurement": "6-mer SELEX enrichment z-score", "setting": "[3]", "value": 3}]}, {"sequence": "TGGGTC", "values": [{"measurement": "6-mer SELEX enrichment z-score", "setting": "[4]", "value": 0.443}, {"measurement": "6-mer SELEX enrichment z-score", "setting": "[2]", "value": 0.173}, {"measurement": "6-mer SELEX enrichment z-score", "setting": "[3]", "value": 0.236}]}, {"sequence": "CAGGGG", "values": [{"measurement": "6-mer SELEX enrichment z-score", "setting": "[1]", "value": 0.585}, {"measurement": "6-mer SELEX enrichment z-score", "setting": "[2]", "value": 1.41}, {"measurement": "6-mer SELEX enrichment z-score", "setting": "[3]", "value": 0.96}]}, {"sequence": "CGGCAC", "values": [{"measurement": "6-mer SELEX enrichment z-score", "setting": "[4]", "value": 0.482}, {"measurement": "6-mer SELEX enrichment z-score", "setting": "[2]", "value": 1.97}, {"measurement": "6-mer SELEX enrichment z-score", "setting": "[3]", "value": 1.96}]}, {"sequence": "GCTAGC", "values": [{"measurement": "6-mer SELEX enrichment z-score", "setting": "[1]", "value": -0.123}, {"measurement": "6-mer SELEX enrichment z-score", "setting": "[2]", "value": -0.37}]}, {"sequence": "GCTACC", "values": [{"measurement": "6-mer SELEX enrichment z-score", "setting": "[1]", "value": -0.148}, {"measurement": "6-mer SELEX enrichment z-score", "setting": "[2]", "value": -0.318}, {"measurement": "6-mer SELEX enrichment z-score", "setting": "[3]", "value": -0.546}]}, {"sequence": "CACTAA", "values": [{"measurement": "6-mer SELEX enrichment z-score", "setting": "[1]", "value": 0.52}, {"measurement": "6-mer SELEX enrichment z-score", "setting": "[2]", "value": 1.45}, {"measurement": "6-mer SELEX enrichment z-score", "setting": "[3]", "value": 1.24}]}, {"sequence": "TGAGAC", "values": [{"measurement": "6-mer SELEX enrichment z-score", "setting": "[1]", "value": -0.902}, {"measurement": "6-mer SELEX enrichment z-score", "setting": "[2]", "value": -0.784}, {"measurement": "6-mer SELEX enrichment z-score", "setting": "[3]", "value": -0.595}]}, {"sequence": "TGCGCC", "values": [{"measurement": "6-mer SELEX enrichment z-score", "setting": "[1]", "value": -0.018}, {"measurement": "6-mer SELEX enrichment z-score", "setting": "[2]", "value": -0.336}, {"measurement": "6-mer SELEX enrichment z-score", "setting": "[3]", "value": -0.636}]}, {"sequence": "AAGTCC", "values": [{"measurement": "6-mer SELEX enrichment z-score", "setting": "[1]", "value": -0.368}, {"measurement": "6-mer SELEX enrichment z-score", "setting": "[2]", "value": -0.333}, {"measurement": "6-mer SELEX enrichment z-score", "setting": "[3]", "value": -0.474}]}, {"sequence": "CTTTCT", "values": [{"measurement": "6-mer SELEX enrichment z-score", "setting": "[4]", "value": 0.388}, {"measurement": "6-mer SELEX enrichment z-score", "setting": "[2]", "value": 0.728}, {"measurement": "6-mer SELEX enrichment z-score", "setting": "[3]", "value": 0.555}]}, {"sequence": "CGACCT", "values": [{"measurement": "6-mer SELEX enrichment z-score", "setting": "[4]", "value": -0.663}, {"measurement": "6-mer SELEX enrichment z-score", "setting": "[3]", "value": -1.3}]}, {"sequence": "TAATGT", "values": [{"measurement": "6-mer SELEX enrichment z-score", "setting": "[1]", "value": -0.191}, {"measurement": "6-mer SELEX enrichment z-score", "setting": "[2]", "value": 0.399}, {"measurement": "6-mer SELEX enrichment z-score", "setting": "[3]", "value": 1.03}]}, {"sequence": "CCCGCC", "values": [{"measurement": "6-mer SELEX enrichment z-score", "setting": "[1]", "value": -0.652}, {"measurement": "6-mer SELEX enrichment z-score", "setting": "[2]", "value": -0.576}, {"measurement": "6-mer SELEX enrichment z-score", "setting": "[3]", "value": -1.63}]}, {"sequence": "CCGTGA", "values": [{"measurement": "6-mer SELEX enrichment z-score", "setting": "[1]", "value": -0.447}, {"measurement": "6-mer SELEX enrichment z-score", "setting": "[2]", "value": -0.208}, {"measurement": "6-mer SELEX enrichment z-score", "setting": "[3]", "value": -0.474}]}, {"sequence": "CTAATC", "values": [{"measurement": "6-mer SELEX enrichment z-score", "setting": "[1]", "value": -0.212}, {"measurement": "6-mer SELEX enrichment z-score", "setting": "[2]", "value": 0.028}, {"measurement": "6-mer SELEX enrichment z-score", "setting": "[3]", "value": -0.082}]}, {"sequence": "CGTCGT", "values": [{"measurement": "6-mer SELEX enrichment z-score", "setting": "[1]", "value": 0.08}, {"measurement": "6-mer SELEX enrichment z-score", "setting": "[2]", "value": -0.398}, {"measurement": "6-mer SELEX enrichment z-score", "setting": "[3]", "value": -0.264}]}, {"sequence": "CGCATG", "values": [{"measurement": "6-mer SELEX enrichment z-score", "setting": "[4]", "value": 1.1}, {"measurement": "6-mer SELEX enrichment z-score", "setting": "[2]", "value": 0.232}, {"measurement": "6-mer SELEX enrichment z-score", "setting": "[3]", "value": 0.11}]}]}
